# The other results are listed elsewhere or left out.
# Molecular target: T1, MBP-FoxP1dN (Mus musculus, UniProt P58462 326-579)
# T1 sequence: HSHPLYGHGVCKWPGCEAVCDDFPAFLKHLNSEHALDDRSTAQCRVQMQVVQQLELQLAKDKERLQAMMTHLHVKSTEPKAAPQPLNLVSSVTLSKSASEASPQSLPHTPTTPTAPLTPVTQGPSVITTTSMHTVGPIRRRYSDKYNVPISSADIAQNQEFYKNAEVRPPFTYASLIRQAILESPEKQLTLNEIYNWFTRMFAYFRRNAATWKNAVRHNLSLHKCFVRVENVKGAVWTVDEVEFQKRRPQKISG
# Assay: PD-seq (MBP pull-down with sequencing); 20 mM Tris-HCl pH 7.5, 100 mM NaCl, 1.5 mM MgCl2, 0.4 uM protein, 0.1 uM dsDNA library, 30 min, room temperature, amylose pull-down; high values mean tight binding
# Settings: protein: recombinant; tags: His6-MBP; chain copies: 2; dsDNA, one strand shown
# Procedure, shortened: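 Binding is the reads-per-million enrichment of pull-down relative to input, pooled across replicates. For this, 0.4 µM His6-MBP-tagged mouse FoxP3 or FoxP1 fragment lacking the N-terminus, made in E. coli, was incubated with 0.1 µM Klenow-filled double-stranded degenerate DNA library for 30 min at room temperature in Tris pH 7.5 buffer with NaCl and MgCl2. Complexes bound to amylose resin were washed three times before proteinase K released the DNA for PCR barcoding and Illumina sequencing.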
row,Sequence,binding signal
1,GATGATTGTTCTCCCAGCTGATGAATTACCGAAATCGAGTAAACAAATTTTCCTAATCTTTCTGTTCAAGCGCCATCTAC,1.1 RPM ratio (pull-down/input)
2,GATGATTGTTCTCCCAGCTGATGAATTCCTACTGTCGAGTAAACAAATTTTCCTAATCTTTCTGTTCAAGCGCCATCTAC,0.85 RPM ratio (pull-down/input)
3,GATGATTGTTCTCCCAGCTGATGAATTTGTTATATCGAGTAAACAAATTTTCCTAATCTTTCTGTTCAAGCGCCATCTAC,1.5 RPM ratio (pull-down/input)
4,GATGATTGTTCTCCCAGCTGATGAATTTTCACAGTCGAGTAAACAAATTTTCCTAATCTTTCTGTTCAAGCGCCATCTAC,0.928 RPM ratio (pull-down/input)
5,GATGATTGTTCTCCCAGCTGATGAATTTTCATGGTCGAGTAAACAAATTTTCCTAATCTTTCTGTTCAAGCGCCATCTAC,0.906 RPM ratio (pull-down/input)
6,GATGATTGTTCTCCCAGCTGATGAATTCCTCTTATCGAGTAAACAAATTTTCCTAATCTTTCTGTTCAAGCGCCATCTAC,0.911 RPM ratio (pull-down/input)
7,GATGATTGTTCTCCCAGCTGATGAATTGCCGTAGTCGAGTAAACAAATTTTCCTAATCTTTCTGTTCAAGCGCCATCTAC,0.972 RPM ratio (pull-down/input)
8,GATGATTGTTCTCCCAGCTGATGAATTACGCGCCTCGAGTAAACAAATTTTCCTAATCTTTCTGTTCAAGCGCCATCTAC,1.12 RPM ratio (pull-down/input)
9,GATGATTGTTCTCCCAGCTGATGAATTGAAGGAGTCGAGTAAACAAATTTTCCTAATCTTTCTGTTCAAGCGCCATCTAC,0.783 RPM ratio (pull-down/input)
10,GATGATTGTTCTCCCAGCTGATGAATTTTGGAGTTCGAGTAAACAAATTTTCCTAATCTTTCTGTTCAAGCGCCATCTAC,0.855 RPM ratio (pull-down/input)
11,GATGATTGTTCTCCCAGCTGATGAATTATATCGGTCGAGTAAACAAATTTTCCTAATCTTTCTGTTCAAGCGCCATCTAC,0.888 RPM ratio (pull-down/input)
12,GATGATTGTTCTCCCAGCTGATGAATTACTAAGCTCGAGTAAACAAATTTTCCTAATCTTTCTGTTCAAGCGCCATCTAC,1.05 RPM ratio (pull-down/input)
13,GATGATTGTTCTCCCAGCTGATGAATTGACGTGATCGAGTAAACAAATTTTCCTAATCTTTCTGTTCAAGCGCCATCTAC,1.08 RPM ratio (pull-down/input)
14,GATGATTGTTCTCCCAGCTGATGAATTGCCCAATTCGAGTAAACAAATTTTCCTAATCTTTCTGTTCAAGCGCCATCTAC,1.03 RPM ratio (pull-down/input)
15,GATGATTGTTCTCCCAGCTGATGAATTGGACACCTCGAGTAAACAAATTTTCCTAATCTTTCTGTTCAAGCGCCATCTAC,0.802 RPM ratio (pull-down/input)
16,GATGATTGTTCTCCCAGCTGATGAATTTTAAAAATCGAGTAAACAAATTTTCCTAATCTTTCTGTTCAAGCGCCATCTAC,1.01 RPM ratio (pull-down/input)
17,GATGATTGTTCTCCCAGCTGATGAATTGGAGGACTCGAGTAAACAAATTTTCCTAATCTTTCTGTTCAAGCGCCATCTAC,0.757 RPM ratio (pull-down/input)
18,GATGATTGTTCTCCCAGCTGATGAATTTCCGGGATCGAGTAAACAAATTTTCCTAATCTTTCTGTTCAAGCGCCATCTAC,0.887 RPM ratio (pull-down/input)
19,GATGATTGTTCTCCCAGCTGATGAATTTACATTTTCGAGTAAACAAATTTTCCTAATCTTTCTGTTCAAGCGCCATCTAC,1.38 RPM ratio (pull-down/input)
20,GATGATTGTTCTCCCAGCTGATGAATTAGGGCCATCGAGTAAACAAATTTTCCTAATCTTTCTGTTCAAGCGCCATCTAC,0.901 RPM ratio (pull-down/input)

row,Sequence,binding signal
1,GATGATTGTTCTCCCAGCTGATGAATTAGTCACCTCGAGTAAACAAATTTTCCTAATCTTTCTGTTCAAGCGCCATCTAC,0.877 RPM ratio (pull-down/input)
2,GATGATTGTTCTCCCAGCTGATGAATTGCCCACATCGAGTAAACAAATTTTCCTAATCTTTCTGTTCAAGCGCCATCTAC,1.07 RPM ratio (pull-down/input)
3,GATGATTGTTCTCCCAGCTGATGAATTATAGCCATCGAGTAAACAAATTTTCCTAATCTTTCTGTTCAAGCGCCATCTAC,0.989 RPM ratio (pull-down/input)
4,GATGATTGTTCTCCCAGCTGATGAATTCCCTGACTCGAGTAAACAAATTTTCCTAATCTTTCTGTTCAAGCGCCATCTAC,0.823 RPM ratio (pull-down/input)
5,GATGATTGTTCTCCCAGCTGATGAATTGGGCTAATCGAGTAAACAAATTTTCCTAATCTTTCTGTTCAAGCGCCATCTAC,0.925 RPM ratio (pull-down/input)
6,GATGATTGTTCTCCCAGCTGATGAATTTTGCGAGTCGAGTAAACAAATTTTCCTAATCTTTCTGTTCAAGCGCCATCTAC,0.866 RPM ratio (pull-down/input)
7,GATGATTGTTCTCCCAGCTGATGAATTTACTATGTCGAGTAAACAAATTTTCCTAATCTTTCTGTTCAAGCGCCATCTAC,1.26 RPM ratio (pull-down/input)
8,GATGATTGTTCTCCCAGCTGATGAATTGTCTATATCGAGTAAACAAATTTTCCTAATCTTTCTGTTCAAGCGCCATCTAC,1.18 RPM ratio (pull-down/input)
9,GATGATTGTTCTCCCAGCTGATGAATTGGTATGATCGAGTAAACAAATTTTCCTAATCTTTCTGTTCAAGCGCCATCTAC,1.01 RPM ratio (pull-down/input)
10,GATGATTGTTCTCCCAGCTGATGAATTACGGGCTTCGAGTAAACAAATTTTCCTAATCTTTCTGTTCAAGCGCCATCTAC,0.885 RPM ratio (pull-down/input)
11,GATGATTGTTCTCCCAGCTGATGAATTTAGCGCATCGAGTAAACAAATTTTCCTAATCTTTCTGTTCAAGCGCCATCTAC,1.21 RPM ratio (pull-down/input)
12,GATGATTGTTCTCCCAGCTGATGAATTTCGTAGATCGAGTAAACAAATTTTCCTAATCTTTCTGTTCAAGCGCCATCTAC,0.765 RPM ratio (pull-down/input)
13,GATGATTGTTCTCCCAGCTGATGAATTGACGGGCTCGAGTAAACAAATTTTCCTAATCTTTCTGTTCAAGCGCCATCTAC,0.882 RPM ratio (pull-down/input)
14,GATGATTGTTCTCCCAGCTGATGAATTGCGACAGTCGAGTAAACAAATTTTCCTAATCTTTCTGTTCAAGCGCCATCTAC,0.958 RPM ratio (pull-down/input)
15,GATGATTGTTCTCCCAGCTGATGAATTGCGGGGATCGAGTAAACAAATTTTCCTAATCTTTCTGTTCAAGCGCCATCTAC,0.962 RPM ratio (pull-down/input)
16,GATGATTGTTCTCCCAGCTGATGAATTTTGTTCTTCGAGTAAACAAATTTTCCTAATCTTTCTGTTCAAGCGCCATCTAC,0.931 RPM ratio (pull-down/input)
17,GATGATTGTTCTCCCAGCTGATGAATTTATAATCTCGAGTAAACAAATTTTCCTAATCTTTCTGTTCAAGCGCCATCTAC,1.03 RPM ratio (pull-down/input)
18,GATGATTGTTCTCCCAGCTGATGAATTTGAGGCGTCGAGTAAACAAATTTTCCTAATCTTTCTGTTCAAGCGCCATCTAC,0.89 RPM ratio (pull-down/input)
19,GATGATTGTTCTCCCAGCTGATGAATTCAGTCATTCGAGTAAACAAATTTTCCTAATCTTTCTGTTCAAGCGCCATCTAC,0.907 RPM ratio (pull-down/input)
20,GATGATTGTTCTCCCAGCTGATGAATTTTGTACATCGAGTAAACAAATTTTCCTAATCTTTCTGTTCAAGCGCCATCTAC,1.22 RPM ratio (pull-down/input)

# From article PMC12820563, “FoxP3 forms a head-to-head dimer in vivo and stabilizes its multimerization on adjacent microsatellites”
